Measurements reported in the supplement of paper PMC8728848.
This is one part of the list.

Legend:
Assay in all cases: glycan array binding signal (z-score within array); higher = stronger binding
Settings in all cases: glycan notation: IUPAC condensed, linker removed
[1] = molecular target: Gal(a1-4)Gal(b1-4)GlcNAc(b1-2)Man(a1-3)[Gal(a1-4)Gal(b1-4)GlcNAc(b1-2)Man(a1-6)]Man(b1-4)GlcNAc(b1-4)GlcNAc
Summary of the method: (§1)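 The binding signal is a Z-score computed within each array. Data were drawn from 3228 arrays in the Consortium for Functional Glycomics database, restricted to those with a known protein sequence. Scores were averaged over arrays of the same protein sequence at different concentrations or buffers, and over linkers, and negative values can be taken as non-binding.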

[2] = molecular target: Gal(a1-4)Gal(b1-4)GlcNAc(b1-3)Gal(b1-4)Glc
Summary of the method: as §1

[3] = molecular target: Gal(a1-4)GlcNAc
Summary of the method: as §1

[4] = molecular target: Gal(a1-6)Glc
Summary of the method: as §1

[5] = molecular target: Gal(b1-2)Gal
Summary of the method: as §1

[6] = molecular target: Gal(b1-3)Gal
Summary of the method: as §1

[7] = molecular target: Gal(b1-3)Gal(b1-4)GlcNAc
Summary of the method: as §1

[8] = molecular target: Gal(b1-3)GalNAc
Summary of the method: as §1

[9] = molecular target: Gal(b1-3)GalNAc(a1-3)[Fuc(a1-2)]Gal(b1-4)Glc
Summary of the method: as §1

[10] = molecular target: Gal(b1-3)GalNAc(a1-3)[Fuc(a1-2)]Gal(b1-4)GlcNAc
Summary of the method: as §1

[11] = molecular target: Gal(b1-3)GalNAc(b1-3)Gal
Summary of the method: as §1

[12] = molecular target: Gal(b1-3)GalNAc(b1-3)Gal(a1-4)Gal(b1-4)Glc
Summary of the method: as §1

[13] = molecular target: Gal(b1-3)GalNAc(b1-4)Gal(b1-4)Glc
Summary of the method: as §1

[14] = molecular target: Gal(b1-3)GalNAc(b1-4)[Neu5Ac(a2-3)]Gal(b1-4)Glc
Summary of the method: as §1

[15] = molecular target: Gal(b1-3)GlcNAc
Summary of the method: as §1

[16] = molecular target: Gal(b1-3)GlcNAc(a1-3)Gal(b1-4)GlcNAc
Summary of the method: as §1

[17] = molecular target: Gal(b1-3)GlcNAc(a1-6)Gal(b1-4)GlcNAc
Summary of the method: as §1

[18] = molecular target: Gal(b1-3)GlcNAc(b1-2)Man
Summary of the method: as §1

[19] = molecular target: Gal(b1-3)GlcNAc(b1-2)Man(a1-3)[Gal(b1-3)GlcNAc(b1-2)Man(a1-6)]Man(b1-4)GlcNAc(b1-4)GlcNAc
Summary of the method: as §1

[20] = molecular target: Gal(b1-3)GlcNAc(b1-2)Man(a1-3)[Gal(b1-3)GlcNAc(b1-2)Man(a1-6)]Man(b1-4)GlcNAc(b1-4)[Fuc(a1-6)]GlcNAc
Summary of the method: as §1

[21] = molecular target: Gal(b1-3)GlcNAc(b1-2)Man(a1-3)[GlcNAc(b1-4)][Gal(b1-3)GlcNAc(b1-2)Man(a1-6)]Man(b1-4)GlcNAc(b1-4)GlcNAc
Summary of the method: as §1

[22] = molecular target: Gal(b1-3)GlcNAc(b1-2)[Gal(b1-3)GlcNAc(b1-6)]Man(a1-6)[Gal(b1-3)GlcNAc(b1-2)Man(a1-3)]Man(b1-4)GlcNAc(b1-4)GlcNAc
Summary of the method: as §1

[23] = molecular target: Gal(b1-3)GlcNAc(b1-3)Gal(b1-3)GlcNAc
Summary of the method: as §1

[24] = molecular target: Gal(b1-3)GlcNAc(b1-3)Gal(b1-4)Glc
Summary of the method: as §1

[25] = molecular target: Gal(b1-3)GlcNAc(b1-3)Gal(b1-4)GlcNAc
Summary of the method: as §1

[26] = molecular target: Gal(b1-3)GlcNAc(b1-3)Gal(b1-4)GlcNAc(b1-2)Man(a1-3)[Gal(b1-3)GlcNAc(b1-3)Gal(b1-4)GlcNAc(b1-2)Man(a1-6)]Man(b1-4)GlcNAc(b1-4)GlcNAc
Summary of the method: as §1

[27] = molecular target: Gal(b1-3)GlcNAc(b1-3)Gal(b1-4)GlcNAc(b1-2)[Gal(b1-3)GlcNAc(b1-3)Gal(b1-4)GlcNAc(b1-6)]Man(a1-6)[Gal(b1-3)GlcNAc(b1-3)Gal(b1-4)GlcNAc(b1-2)Man(a1-3)]Man(b1-4)GlcNAc(b1-4)[Fuc(a1-6)]GlcNAc
Summary of the method: as §1

[28] = molecular target: Gal(b1-3)GlcNAc(b1-3)Gal(b1-4)GlcNAc(b1-3)Gal(b1-4)GlcNAc(b1-2)[Gal(b1-3)GlcNAc(b1-3)Gal(b1-4)GlcNAc(b1-3)Gal(b1-4)GlcNAc(b1-6)]Man(a1-6)[Gal(b1-3)GlcNAc(b1-3)Gal(b1-4)GlcNAc(b1-3)Gal(b1-4)GlcNAc(b1-2)Man(a1-3)]Man(b1-4)GlcNAc(b1-4)[Fuc(a1-6)]GlcNAc
Summary of the method: as §1

[29] = molecular target: Gal(b1-3)GlcNAc(b1-3)Gal(b1-4)GlcNAc(b1-6)[Gal(b1-3)GlcNAc(b1-3)]Gal(b1-4)Glc
Summary of the method: as §1

[30] = molecular target: Gal(b1-3)GlcNAc(b1-3)Gal(b1-4)[Fuc(a1-3)]GlcNAc
Summary of the method: as §1

[31] = molecular target: Gal(b1-3)GlcNAc(b1-3)Gal(b1-4)[Fuc(a1-3)]GlcNAc(b1-6)[Gal(b1-3)GlcNAc(b1-3)]Gal(b1-4)Glc
Summary of the method: as §1

[32] = molecular target: Gal(b1-3)GlcNAc(b1-3)GalNAc
Summary of the method: as §1

[33] = molecular target: Gal(b1-3)GlcNAc(b1-6)Gal(b1-4)GlcNAc
Summary of the method: as §1

[34] = molecular target: Gal(b1-3)GlcNAc(b1-6)GalNAc
Summary of the method: as §1

[35] = molecular target: Gal(b1-3)GlcNAc(b1-6)[Gal(b1-3)]GalNAc
Summary of the method: as §1

[36] = molecular target: Gal(b1-3)GlcNAc6S
Summary of the method: as §1

[37] = molecular target: Gal(b1-3)[Fuc(a1-4)]GlcNAc
Summary of the method: as §1

B1: LCA (Lens culinaris), P02870 (protein)
chain: MASLQTQMISFYLIFLSILLTTIFFFKVNSTETTSFSITKFSPDQKNLIFQGDGYTTKGKLTLTKAVKSTVGRALYSTPIHIWDRDTGNVANFVTSFTFVIDAPSSYNVADEFTFFIAPVDTKPQTGGGYLGVFNSKEYDKTSQTVAVEFDTFYNAAWDPSNKERHIGIDVNSIKSVNTKSWNLQNGERANVVIAFNAATNVLTVTLTYPNSLEEENVTSYTLNEVVPLKDVVPEWVRIGFSATTGAEFAAHEVHSWSFHSELGGTSSSKQAADA
[1]
  glycan array binding signal (z-score): -0.125
[2]
  glycan array binding signal (z-score): -0.221
[3]
  glycan array binding signal (z-score): -0.239
[4]
  glycan array binding signal (z-score): -0.228
[5]
  glycan array binding signal (z-score): -0.167
[6]
  glycan array binding signal (z-score): -0.252
[7]
  glycan array binding signal (z-score): -0.245
[8]
  glycan array binding signal (z-score): -0.232
[9]
  glycan array binding signal (z-score): -0.265
[10]
  glycan array binding signal (z-score): -0.255
[11]
  glycan array binding signal (z-score): -0.196
[12]
  glycan array binding signal (z-score): -0.209
[13]
  glycan array binding signal (z-score): -0.202
[14]
  glycan array binding signal (z-score): -0.218
[15]
  glycan array binding signal (z-score): -0.212
[16]
  glycan array binding signal (z-score): -0.217
[17]
  glycan array binding signal (z-score): -0.211
[18]
  glycan array binding signal (z-score): -0.144
[19]
  glycan array binding signal (z-score): 0.168
[20]
  glycan array binding signal (z-score): 2.03
[21]
  glycan array binding signal (z-score): -0.18
[22]
  glycan array binding signal (z-score): -0.256
[23]
  glycan array binding signal (z-score): -0.234
[24]
  glycan array binding signal (z-score): -0.231
[25]
  glycan array binding signal (z-score): -0.251
[26]
  glycan array binding signal (z-score): -0.176
[27]
  glycan array binding signal (z-score): -0.129
[28]
  glycan array binding signal (z-score): 2.72
[29]
  glycan array binding signal (z-score): -0.238
[30]
  glycan array binding signal (z-score): -0.233
[31]
  glycan array binding signal (z-score): -0.222
[32]
  glycan array binding signal (z-score): -0.239
[33]
  glycan array binding signal (z-score): -0.221
[34]
  glycan array binding signal (z-score): -0.214
[35]
  glycan array binding signal (z-score): -0.231
[36]
  glycan array binding signal (z-score): -0.266
[37]
  glycan array binding signal (z-score): -0.2
